Activation data for 22 molecules are collected here from PubChem BioAssay AID1645887 (National Center for Advancing Translational Sciences (NCATS), 2021).

Values joined by “and” are separate entries in the source; they are usually repeats but may differ in a detail not shown here. Equal values may be shown once. Hit rate of the full screen: of about 16,000 compounds, about 40 (0.2%) were called active. Inconclusive results (about 1%) are left out. The call rests on the fitted dose curve; in most records, active means well fitted activation curve with a large enough effect; inconclusive means small, poorly fitted or top-dose-only effect, or another doubt; inactive means no such curve, though single readings can be large or run the other way. The list shows a part of the results.
On the % scale 0 is the no-effect control and ±100 the full control effect.

The target in the experiment is Rap guanine nucleotide exchange factor 4 (Homo sapiens) (UniProt Q8WZA2). Briefly: Validation qHTS for agonist of cAMP-regulated guanine nucleotide exchange factor 4 (EPAC2).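 Further: exchange makes BODIPY-GDP fluorescence drop when released from Rap1B; series mostly up to about 150 µM.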 The settings on record: EPAC2 Rap1B BODIPY-GDP exchange, fluorescence; activation: active compounds read high. Summed up: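 Signal normalized against 6.5 mM cAMP as agonist control. Mix of EPAC2 (100 nM), RAP1B-BODIPY-GDP (250 nM) and GDP (50 uM) was read kinetically at 480/540 nm, every 5 min over 30 min, after 5 min room-temperature incubation with compound.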
UniProt Q8WZA2, sequence (Q8WZA2 whole entry, looked up): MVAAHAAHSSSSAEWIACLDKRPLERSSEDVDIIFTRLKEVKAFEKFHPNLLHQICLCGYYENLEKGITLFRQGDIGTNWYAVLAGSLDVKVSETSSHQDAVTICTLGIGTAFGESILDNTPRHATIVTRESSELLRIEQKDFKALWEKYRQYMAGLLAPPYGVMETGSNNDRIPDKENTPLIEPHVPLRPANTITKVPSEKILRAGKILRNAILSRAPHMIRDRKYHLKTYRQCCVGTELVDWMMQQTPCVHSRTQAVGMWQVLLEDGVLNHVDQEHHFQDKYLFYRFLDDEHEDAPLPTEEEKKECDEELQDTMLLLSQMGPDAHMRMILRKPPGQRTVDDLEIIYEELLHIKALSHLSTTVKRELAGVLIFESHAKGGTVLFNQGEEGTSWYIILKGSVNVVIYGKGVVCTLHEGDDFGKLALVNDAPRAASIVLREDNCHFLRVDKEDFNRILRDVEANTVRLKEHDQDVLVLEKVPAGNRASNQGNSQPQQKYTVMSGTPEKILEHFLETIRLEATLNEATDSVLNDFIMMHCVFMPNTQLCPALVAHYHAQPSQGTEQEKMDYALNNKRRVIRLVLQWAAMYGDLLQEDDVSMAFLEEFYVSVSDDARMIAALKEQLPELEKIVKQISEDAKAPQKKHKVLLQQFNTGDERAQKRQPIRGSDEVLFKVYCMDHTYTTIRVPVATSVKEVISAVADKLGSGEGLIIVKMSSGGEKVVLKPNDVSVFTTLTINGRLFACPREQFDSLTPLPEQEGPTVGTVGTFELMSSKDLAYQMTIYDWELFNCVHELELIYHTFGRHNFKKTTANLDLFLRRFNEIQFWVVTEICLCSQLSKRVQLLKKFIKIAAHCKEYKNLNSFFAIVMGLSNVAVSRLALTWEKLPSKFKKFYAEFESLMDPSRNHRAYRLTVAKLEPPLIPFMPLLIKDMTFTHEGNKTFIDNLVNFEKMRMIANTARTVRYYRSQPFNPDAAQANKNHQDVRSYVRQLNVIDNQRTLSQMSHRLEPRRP
A general note: In qHTS, concentration-response curves come from the screen itself.
For the molecule `NC(=O)c1ccccc1O`, the activation is inactive: -13.3%.

With `COc1ccc2[nH]cc(CCNc3nc(-c4c(C)noc4C)nc4ccccc34)c2c1`, the activation is inactive: 6.86%.

Take `Cc1cccc2cc(CN(C(=O)c3ccc(-c4ccc(F)cc4)cc3)C3CC3)c(N3CCC(O)CC3)nc12`: the activation was inactive: -12.7%.

For `COc1cc(CN2CCCC(n3cc(C(=O)N4CCCCC4)nn3)C2)cc(OC)c1` (configuration not stated), the activation is inactive: -0.628%.

Consider `COc1ccc(C(=O)CCC(=O)O)c2ccccc12`, for which the activation was inactive: -25%.

For the molecule `CCCN1CC(CSC)C[C@H]2c3cccc4[nH]cc(c34)C[C@H]21` (some centres not stated), the activation is inactive: -14.9%.

For the molecule `CCCCN1CCC(n2c(=O)[nH]c3ccccc32)CC1`, the activation was inactive: -59%.

Consider `O=C(NOCC1CC1)c1ccc(F)c(F)c1Nc1ccc(I)cc1Cl`, for which the activation was inactive: 2.68%.

Consider `COc1ccc(-c2nc3cnc(N4CCN(C)CC4)nc3n(C3CC3)c2=O)cc1`, for which the activation is inactive: -5.51%.

Consider `N[C@H](CC(=O)O)C(=O)O`, for which the activation was inactive: 9.77% and inactive: -0.752% and inactive: 2.84%.

With `Cc1ccc(SCCN2CCC(O)CCC2=O)cc1` (configuration not stated), the activation is inactive: -16.8%.

Turning to `COc1cc2c(cc1OC)C1C(=O)c3c(O)cc4c(c3OC1CO2)C=CC(C)(C)O4` (configuration not stated), the activation is inactive: -15.5%.

`Oc1cc(-c2nc3ccccc3s2)cc2c1OCCN(Cc1cccn1-c1ccc(Cl)cn1)C2`: the activation was inactive: -9.23%.

With `COc1ccccc1C(=O)N[C@@H]1c2ccccc2C2(CCN(Cc3nccs3)CC2)[C@H]1OC`, the activation is inactive: 3.24%.

Take `COc1cc(O)c2c(=O)cc(-c3ccc(OC)c(-c4c(O)cc(O)c5c(=O)cc(-c6ccc(O)cc6)oc45)c3)oc2c1`: the activation is inactive: -5.99%.

As for `Oc1c(Br)cc(Br)c2cccnc12`, the activation was inactive: -8.37%.

As for `CCC(=O)O[C@H]1CC[C@H]2[C@@H]3CCc4cc(O)ccc4[C@H]3CC[C@]12C`, the activation is inactive: -14.7%.

Consider `CS(=O)(=O)Nc1cccc(-c2nc(Nc3ccc(F)cc3)c3ccccc3n2)c1`, for which the activation was inactive: -12.8%.

As for `CC(C)NC(=O)N1CC[C@@]2(CCCN(C(=O)c3ccco3)C2)C1`, the activation is inactive: -12.5%.

As for `CO[C@@H]1[C@@H](O[C@@H]2O[C@H](C)[C@@H](O[C@H]3C[C@@](C)(O)[C@@H](O)[C@H](C)O3)[C@H](N(C)C)[C@H]2O)[C@@H](CC=O)C[C@@H](C)[C@@H](O[C@@H]2CC[C@H](N(C)C)[C@@H](C)O2)/C=C/C=C/C[C@@H](C)OC(=O)C[C@H]1O`, the activation was inactive: -7.58%.

As for `CC(C)C(C)/C=C/C(C)C1CCC2C3=CC=C4CC(O)CCC4(C)C3CCC21C` (configuration not stated), the activation is inactive: -26.7%.

Turning to `CCNc1ncc2nc(CCc3ccccc3)c(=O)n(C3CC3)c2n1`, the activation is inactive: 3.1%.
